Measurements from PubChem BioAssay AID485294 (National Center for Advancing Translational Sciences (NCATS), 2010).
Values joined by “and” are separate entries in the source; they are usually repeats but may differ in a detail not shown here. Equal entries are not always repeated. In all, about 370,000 compounds went through this assay and about 150 (0.041%) were called active. The inconclusive results got no clear call from the source; some entries with a clear call stand among them for comparison. Calls come from the whole dose curve; as a rule, active = well fitted inhibition curve with a large enough effect; inconclusive = small, poorly fitted or top-dose-only effect; inactive = flat fitted curve, though single readings scatter. Potencies of inconclusive entries are doubtful fits and often do not repeat.

These compounds were tested against Beta-lactamase (Escherichia coli (strain K12)) (UniProt P00811) (assay: qHTS Inhibitors of AmpC Beta-Lactamase (assay with detergent)). Settings: AmpC hydrolysis of nitrocefin, absorbance 480 nm, 0.01% Triton; series mostly up to 114 µM.
UniProt P00811, sequence (P00811 whole entry, looked up): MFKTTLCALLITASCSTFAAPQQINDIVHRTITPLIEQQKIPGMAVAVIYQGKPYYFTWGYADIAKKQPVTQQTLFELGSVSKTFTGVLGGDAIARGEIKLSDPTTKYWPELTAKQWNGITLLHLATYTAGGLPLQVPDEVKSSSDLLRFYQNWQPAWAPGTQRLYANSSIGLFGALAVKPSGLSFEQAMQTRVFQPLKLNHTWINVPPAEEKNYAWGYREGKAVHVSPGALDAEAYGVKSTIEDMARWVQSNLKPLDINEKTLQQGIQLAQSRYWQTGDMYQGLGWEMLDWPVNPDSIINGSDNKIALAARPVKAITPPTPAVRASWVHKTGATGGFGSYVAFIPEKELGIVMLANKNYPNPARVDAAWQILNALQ
Method in brief: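 AmpC (5.3 nM in the dispensed reagent) in 20 mM phosphate pH 7.0 with 0.01% (detergent screen) or 0.0001% Triton X-100 was preincubated with compounds for 15 min at room temperature. Nitrocefin was then added from an 800 uM solution, and hydrolysis was followed at 480 nm.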
Note: nearly all actives have a fitted effect of over 25% in size.
Potency is the fitted concentration of half-maximal effect; tags give direction and shape of the fitted curve.

Compound	Potency
COC(=O)c1c(NC(=O)CN2C(=O)c3ccccc3C2=O)sc(Cc2ccc3c(c2)OCO3)c1C	inconclusive: 100 µM [inhibitor, partial curve, poor fit]
Cc1ccc2nc(NCCCN3CCOCC3)c(C=NCCCN3CCOCC3)c(=O)n2c1	inconclusive: 3.16 µM [inhibitor, full curve]
COc1cccc(C2=NNC(=NCc3ccccc3)SC2)c1	inconclusive: 22.4 µM [inhibitor, full curve, poor fit]
O=C1CC(N2CCN(c3ccc(C(=O)c4ccc(F)cc4)cc3)CC2)C(=O)N1 (stereo unspecified)	inconclusive: 1.78 µM [inhibitor, full curve]
C=CCc1cc(C)ccc1OCCn1ccnc1	inconclusive: 2.51 µM [inhibitor, full curve, poor fit]
COCCCNC(=S)NNC(=O)c1ccoc1C	inactive
COc1ccc(C(=O)Nc2cc(OCc3ccccc3)c(Cl)cc2Cl)cc1	inconclusive: 112 µM [inhibitor, partial curve, poor fit]
O=S1(=O)N=C(N/N=C/C=C/c2ccccc2)c2ccccc21	inconclusive: 11.2 µM [inhibitor, full curve, poor fit]
N=C1C(c2nc3ccccc3s2)=C(O)CN1NC(=O)c1ccco1	inactive
Cn1c(-c2ccccc2)cnc1NCc1ccccc1	inconclusive: 2.51 µM [inhibitor, full curve, poor fit]
Cc1ccc(N2C(=O)CC(Sc3ncn[nH]3)C2=O)cc1 (stereo unspecified)	inconclusive: 63.1 µM [inhibitor, single point]
Cn1cc(C(=O)N2CCN(C(=O)c3ccco3)CC2)c2c3ccccc3n(C)c2c1=O	inconclusive: 70.8 µM [inhibitor, partial curve, poor fit]
N#CCCN(C(=O)COC(=O)c1cc(S(=O)(=O)N2CCOCC2)ccc1Cl)c1ccc(F)cc1	inconclusive: 0.316 µM [inhibitor, full curve]
N#CCCN1CCN(S(=O)(=O)c2ccc(S(=O)(=O)N3CCCC3)cc2)CC1	inconclusive: 2.82 µM [inhibitor, full curve, poor fit]
CCOc1cccc(C2NCc3ccccc3-n3cccc32)c1O (stereo unspecified)	inactive
N/C(=N\c1nc2ccccc2o1)NC(=O)c1ccccc1	inconclusive: 20 µM [inhibitor, single point]
CCOC(=O)CNS(=O)(=O)c1ccc2c3c(cccc13)C(=O)N2CC	inconclusive: 4.47 µM [inhibitor, full curve, poor fit]
NS(=O)(=O)c1ccc2c(c1)C1C=CCC1C(C1CC=CCC1)N2 (stereo unspecified)	inconclusive: 2 µM [inhibitor, full curve, poor fit]
O=C(CCS(=O)(=O)c1ccc(Cl)cc1)Oc1ccc2c(c1)OCO2	inconclusive: 0.355 µM [inhibitor, full curve, poor fit]
O=C(CCc1ccccn1)N1CCCC(Nc2cccc(F)c2)C1 (stereo unspecified)	inconclusive: 28.2 µM [inhibitor, full curve]
CCC1CN(C(=O)Nc2ccc(C(=O)O)cc2)c2cc(Cl)ccc2O1 (stereo unspecified)	inactive
CCc1ccccc1N(C(=O)c1snc(C(N)=O)c1N)C(C(=O)NCC1CCCO1)c1ccc(N(C)C)cc1 (stereo unspecified)	inconclusive: 100 µM [inhibitor, partial curve, poor fit]

Compound	Potency
O=C(O)C1CCN(S(=O)(=O)c2ccc3c(c2)OCCCO3)CC1	inconclusive: 100 µM [inhibitor, partial curve, poor fit]
O=C(CSc1cn(CC(=O)N2CCCC2)c2ccccc12)Nc1cc(C(F)(F)F)ccc1Cl	inactive
CCn1c(CCC(=O)O)nc2cc(S(=O)(=O)N(C)C)ccc21	inconclusive: 112 µM [inhibitor, partial curve, poor fit]
CCn1c(SCC(=O)Nc2cc(C)on2)nnc1-c1cccc(C)c1	inactive
COc1cccc(N(CC(=O)NC2CCCCC2)C(=O)CCC(=O)Nc2nc(C)cs2)c1	inactive
COc1cccc(C2CC(c3ccc(C)cc3)n3nc(N)nc3N2)c1 (stereo unspecified)	inconclusive: 5.01 µM [inhibitor, full curve]
Cc1ccc2nc(-c3ccc(NC(=S)NC(=O)C(C)C)cc3)sc2c1	inconclusive: 3.98 µM [inhibitor, full curve, poor fit]
O=C(Nc1cccc(-c2ccc(N3CCCCC3)nn2)c1)C(F)(F)F	inconclusive: 56.2 µM [inhibitor, partial curve, poor fit]
Cc1cccc(NC(=O)CN2C(=S)NC(C)(C)CC2C)c1 (stereo unspecified)	inactive
CC(C)c1nnc(NC(=O)CC(=O)Nc2ccccc2C(=O)O)s1	inconclusive: 3.16 µM [inhibitor, full curve]
CC(C)NC(=O)CSc1nnc(C2CC2)n1-c1ccccc1	inconclusive: 4.47 µM [inhibitor, full curve, poor fit]
Cc1cccc(C)c1NC(=O)CNC(=O)c1c(-c2ccccc2)noc1C	inactive
Cc1c(Cl)cccc1NC(=O)C1COc2ccccc2O1 (stereo unspecified)	inconclusive: 2.82 µM [inhibitor, full curve, poor fit]
COc1ccc2c(c1)nc(SCC(=O)c1cccs1)n2C	inconclusive: 11.2 µM [inhibitor, full curve, poor fit]
COc1cc(/C=N/n2cnnc2)ccc1OCc1ccccc1	inactive
CC(Oc1ccccc1)C(=O)Nc1cccc(F)c1 (stereo unspecified)	inconclusive: 0.708 µM [inhibitor, full curve, poor fit]
C/C(=N/NC(=O)c1ccco1)c1cccc(NC(=O)c2ccc(C)s2)c1	inconclusive: 44.7 µM [inhibitor, full curve, poor fit]
O=C(Cn1nnc(-c2ccccc2-n2cnnn2)n1)c1ccccc1	inconclusive: 100 µM [inhibitor, single point]
O=c1cc(O)nc(SCc2ccccc2Cl)[nH]1	inconclusive: 89.1 µM [inhibitor, single point]
COc1ccc(NC(=O)c2oc3cc(C)c(C)cc3c2C)c(OC)c1	inconclusive: 3.98 µM [inhibitor, full curve, poor fit]
CC1(C)CC(=O)CC2(C1)NCC(c1ccccc1)c1c2[nH]c2ccccc12 (stereo unspecified)	inactive
CN(C/C(O)=C(\C#N)c1ccccc1)C1CCCCC1	inconclusive: 1.58 µM [inhibitor, full curve]

Compound	Potency
Cc1cc(NC(=O)Nc2cccc([N+](=O)[O-])c2)no1	inconclusive: 44.7 µM [inhibitor, partial curve]
CCOC(=O)C1CCCN(S(=O)(=O)c2csc(C(N)=O)c2)C1 (stereo unspecified)	inactive
CC(C)c1nc(N2CCN(C(=O)c3ccccc3)CC2)c(C#N)c2c1COC(C)(C)C2	inactive
CN(CC(=O)Nc1ccc(Cl)cc1)CC(=O)Nc1cc(Cl)ccc1C#N	inactive
Cc1ccccc1/C=C/C(=O)NCC(=O)N1CCC(N(C)C2CCCCC2C)CC1 (stereo unspecified)	inconclusive: 3.16 µM [inhibitor, single point]
CCc1nn2c(=O)c(S(=O)(=O)Nc3cccc(F)c3)c(C)nc2s1	inactive and inconclusive: 10 µM [inhibitor, full curve]
COCCC(=O)N1CCC(Oc2ccc(C(=O)NCCn3cccn3)cc2)CC1	inconclusive: 5.01 µM [inhibitor, full curve, poor fit]
CCC(Sc1nc2nccnc2c(=O)n1Cc1ccc(C)cc1)C(=O)NC1CCCCC1 (stereo unspecified)	inactive
CCN(CC)CCCNC(=S)N(CCCO)Cc1cc2cc3c(cc2[nH]c1=O)OCO3	inconclusive: 5.01 µM [inhibitor, full curve, poor fit]
O=c1c2ccccc2nc(SCc2ccc(F)cc2Cl)n1CCCN1CCOCC1	inactive
CCOc1ccccc1C(=O)NN1C(=O)C2CCCCC2C1=O (stereo unspecified)	inconclusive: 5.01 µM [inhibitor, full curve, poor fit]
Cc1cc(C)nc(SCC(=O)NNC(=O)c2ccccc2C)n1	inconclusive: 0.631 µM [inhibitor, full curve, poor fit]
CCOc1cc(/C=N/NC(=O)Cn2nc([N+](=O)[O-])cc2C)cc(Br)c1OCc1ccccc1C	inconclusive: 44.7 µM [inhibitor, partial curve, poor fit]
CCOC(=O)[C@@H]1[C@H]2COc3cc(OC)ccc3[C@H]2N2C(=O)N(c3cccc(Cl)c3)C(=O)[C@]12C	inconclusive: 0.316 µM [inhibitor, full curve, poor fit]
CCOC(=O)c1nn(-c2ccccc2)c(=O)c2c(N)scc12	inconclusive: 44.7 µM [inhibitor, partial curve]
CCN(CC)C(=O)CN(c1ccc(F)c(Cl)c1)S(C)(=O)=O	inconclusive: 100 µM [inhibitor, partial curve, poor fit]
CC(C)OC(=O)CSc1nnc(-c2cnccn2)n1C	inactive
CC1CN(S(=O)(=O)c2cc(C(=O)NCCC3=CCCCC3)ccc2Cl)CC(C)O1 (stereo unspecified)	inactive
O=c1[nH]c(=S)n(-c2ccccc2F)c(O)c1C=Nc1ccc(N2CCOCC2)cc1	inconclusive: 89.1 µM [inhibitor, single point]
CC(C)N(CC(O)c1cccc([N+](=O)[O-])c1)C(C)C (stereo unspecified)	inconclusive: 28.2 µM [inhibitor, full curve]
O=C(CN(Cc1ccco1)Cc1ccco1)Nc1cc(S(=O)(=O)N2CCCCC2)ccc1Cl	inactive
CC(=O)Nc1ccc(OC(=O)c2cc3ccccc3oc2=O)cc1	inconclusive: 5.01 µM [inhibitor, full curve]
